Results reported in publication PMC11853675.
These are yes or no findings as the source states them, for the method shown. Binding seen in cells or lysates may run through a third protein. Some binding calls cover weakened binding; strength is not graded here. Each block holds one substance with its values, some of them ahead of it.

Sequences of proteins named here, by UniProt entry; tags and fusion partners are left off. A change or cut given only in a name is not applied to a line headed by its entry. Residues count along the entry.
UniProt P05556: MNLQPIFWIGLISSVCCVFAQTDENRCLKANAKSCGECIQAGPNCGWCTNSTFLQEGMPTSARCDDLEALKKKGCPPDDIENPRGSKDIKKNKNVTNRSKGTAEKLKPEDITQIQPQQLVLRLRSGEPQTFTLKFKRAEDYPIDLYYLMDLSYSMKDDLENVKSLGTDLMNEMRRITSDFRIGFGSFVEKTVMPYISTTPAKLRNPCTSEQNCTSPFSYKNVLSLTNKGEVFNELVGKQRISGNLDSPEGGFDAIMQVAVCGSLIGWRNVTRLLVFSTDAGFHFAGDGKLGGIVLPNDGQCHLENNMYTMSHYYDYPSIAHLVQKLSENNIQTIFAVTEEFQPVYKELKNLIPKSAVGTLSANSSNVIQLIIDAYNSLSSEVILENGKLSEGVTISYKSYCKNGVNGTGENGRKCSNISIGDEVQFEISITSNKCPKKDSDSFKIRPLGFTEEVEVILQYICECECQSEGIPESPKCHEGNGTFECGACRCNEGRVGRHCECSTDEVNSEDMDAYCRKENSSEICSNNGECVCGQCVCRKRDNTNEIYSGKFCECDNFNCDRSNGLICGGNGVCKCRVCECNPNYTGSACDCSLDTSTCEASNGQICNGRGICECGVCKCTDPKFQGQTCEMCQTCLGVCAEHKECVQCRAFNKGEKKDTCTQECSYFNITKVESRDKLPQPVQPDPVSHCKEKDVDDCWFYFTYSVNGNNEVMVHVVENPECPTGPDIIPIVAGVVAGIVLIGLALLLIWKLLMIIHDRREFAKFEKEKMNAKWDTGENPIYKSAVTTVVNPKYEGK
combined EGF4-βTD domains of β1-integrin (residues 572–728): residues 572-728 of P05556
EGF4 domain of β1-integrin (residues 572–610): residues 572-610 of P05556

Tests used:
[1] = target: tissue factor (TF), endogenous, cellular (human (endogenous in MDA-MB-231)) (UniProt P13726); experiment: proximity ligation; MDA-MB-231 cells (10^4) transfected to express the constructs, 48 h; Duolink PLA with mouse anti-HA-tag (C29F4) paired with rabbit polyclonal anti-β1-integrin or anti-TF antibody, overnight at 4 °C
[2] = target: β1-integrin (endogenous, cellular) (human (endogenous in MDA-MB-231 and HDBEC)) (UniProt P05556); experiment: proximity ligation; HDBEC (5 × 10^4) transfected to express the constructs, 48 h; Duolink PLA with mouse anti-HA-tag (C29F4) and rabbit polyclonal anti-β1-integrin antibodies, overnight at 4 °C
[3] = target: β1-integrin (endogenous, cellular) (human (endogenous in MDA-MB-231 and HDBEC)) (UniProt P05556); experiment: proximity ligation; MDA-MB-231 cells (10^4) transfected to express the constructs, 48 h; Duolink PLA with mouse anti-HA-tag (C29F4) paired with rabbit polyclonal anti-β1-integrin or anti-TF antibody, overnight at 4 °C
[4] = target: combined EGF4-βTD domains of β1-integrin (residues 572–728) (human) (UniProt P05556); experiment: co-IP; MDA-MB-231 cells (1.5 × 10^5) transfected 48 h, lysed in PhosphoSafe buffer; constructs captured with anti-FLAG-tag antibody (4 µg) at 4 °C overnight and protein A-magnetic beads, five washes with PBST; blot with anti-β1-integrin or anti-TF (HTF-1) antibody
[5] = target: lower fibronectin-like domain of TF extracellular domain (residues 106–219; LED) (human) (UniProt P13726); experiment: as above

binding [1]: no binding
Substance: EGF4 domain of β1-integrin (residues 572–610) (from UniProt P05556-1 572-610) (domain or fragment)

binding [1]: binds
Substance: combined EGF4-βTD domains of β1-integrin (residues 572–728) (from UniProt P05556-1 572-728) (domain or fragment)

binding [2]: binds
binding [3]: binds
Substance: lower fibronectin-like domain of TF extracellular domain (residues 106–219; LED) (from UniProt P13726-1 138-251) (domain or fragment)

Further lines, the substance ahead of its results:

Substance: tissue factor (TF), endogenous, cellular (from UniProt P13726 33-295) (receptor)
binding [4]: binds

Substance: β1-integrin (endogenous, cellular) (from UniProt P05556 21-798) (receptor)
binding [5]: binds
